Several values for one entry are separate records, joined by “and”; a condition that tells them apart may be missing. Identical values can stand only once. Like-named read-outs stand apart in the source and are kept apart here.
Legend:
[1] = test system: human serum albumin (HSA); details: 49 (SI ref 1,2); cited from earlier work
[2] = target: human serum albumin (HSA) (Homo sapiens, UniProt P02768); assay: HSA binding by biomimetic chromatography on immobilized HSA column (Chiralpak-HSA)
Chain of human serum albumin (HSA) (P02768 25-609): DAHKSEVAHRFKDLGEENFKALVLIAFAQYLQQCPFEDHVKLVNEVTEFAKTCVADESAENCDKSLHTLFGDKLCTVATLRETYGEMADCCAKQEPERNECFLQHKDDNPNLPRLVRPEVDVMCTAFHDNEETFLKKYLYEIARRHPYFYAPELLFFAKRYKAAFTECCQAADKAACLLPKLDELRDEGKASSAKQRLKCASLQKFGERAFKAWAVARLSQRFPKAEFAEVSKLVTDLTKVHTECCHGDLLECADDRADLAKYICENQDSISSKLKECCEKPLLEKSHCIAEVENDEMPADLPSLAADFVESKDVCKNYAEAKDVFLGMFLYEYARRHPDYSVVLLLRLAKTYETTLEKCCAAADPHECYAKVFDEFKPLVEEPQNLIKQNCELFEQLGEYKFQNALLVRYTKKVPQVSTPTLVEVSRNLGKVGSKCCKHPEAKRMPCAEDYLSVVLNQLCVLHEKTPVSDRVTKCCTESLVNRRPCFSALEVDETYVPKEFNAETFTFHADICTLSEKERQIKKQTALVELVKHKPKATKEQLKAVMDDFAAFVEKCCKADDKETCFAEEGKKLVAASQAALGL

SMILES | HSA% (HPLC), literature data [1] | HSA% (HPLC), experimental data [2] | HSA% (HPLC), experimental data ([2]; listed as oxazepam)
COc1ccc2cc([C@H](C)C(=O)O)ccc2c1 [Naproxen] | 99% | 99.1% | 
CC(C)NCC(O)COc1ccc(CC(N)=O)cc1 (stereo not drawn) [Atenolol] |  | 14.3% | 
NS(=O)(=O)c1cc(C(=O)O)c(NCc2ccco2)cc1Cl [Furosemide] | 63.8% | 99.4% | 
CN(C)CCOC(c1ccccc1)c1ccccc1 [Diphenhydramine] | 55.4% | 55% | 
Cc1cc(NS(=O)(=O)c2ccc(N)cc2)no1 [Sulfamethoxazole] |  | 86.2% | 
O=C1Nc2ccc(Cl)cc2C(c2ccccc2)=NC1O (stereo not drawn) [Oxazepam] | 94.2% | 79.9% and 89.5% | 79.9% and 89.5%
CC1=C(C(=O)O)N2C(=O)[C@@H](NC(=O)[C@H](N)c3ccccc3)[C@H]2SC1 [Cephalexin] | 14% |  | 
